We go through 40 sequences from paper PMC12820563.

This is one part of the list. The list includes weakly bound sequences.

The target in this assay is T1, MBP-FoxP3dN (UniProt Q99JB6).
T1 sequence: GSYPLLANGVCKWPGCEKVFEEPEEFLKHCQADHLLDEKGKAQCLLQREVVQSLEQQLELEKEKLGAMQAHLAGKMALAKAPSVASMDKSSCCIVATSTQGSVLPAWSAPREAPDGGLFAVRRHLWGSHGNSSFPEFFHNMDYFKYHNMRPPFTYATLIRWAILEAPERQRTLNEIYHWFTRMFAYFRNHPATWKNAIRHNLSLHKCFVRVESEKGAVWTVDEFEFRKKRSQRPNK
Kind of assay: PD-seq (MBP pull-down with sequencing). The conditions noted are these: 20 mM Tris-HCl pH 7.5, 100 mM NaCl, 1.5 mM MgCl2, 0.4 uM protein, 0.1 uM dsDNA library, 30 min, room temperature, amylose pull-down; high values mean tight binding; double strand, one strand shown.
“GATGATTGTTCTCCCAGCTGATGAATTGCTTTCTTCGAGTAAACAAATTTTCCTAATCTTTCTGTTCAAGCGCCATCTAC”: the binding signal (RPM ratio (pull-down/input)) was 1.22.

Consider “GATGATTGTTCTCCCAGCTGATGAATTGGTCGACTCGAGTAAACAAATTTTCCTAATCTTTCTGTTCAAGCGCCATCTAC”, for which the binding signal (RPM ratio (pull-down/input)) turned out to be 0.342.

On to “GATGATTGTTCTCCCAGCTGATGAATTACCGTGCTCGAGTAAACAAATTTTCCTAATCTTTCTGTTCAAGCGCCATCTAC”, for which the binding signal (RPM ratio (pull-down/input)) came out at 0.434.

As to “GATGATTGTTCTCCCAGCTGATGAATTCGTACTTTCGAGTAAACAAATTTTCCTAATCTTTCTGTTCAAGCGCCATCTAC”, the binding signal (RPM ratio (pull-down/input)) was determined as 0.425.

As to “GATGATTGTTCTCCCAGCTGATGAATTGGTCGGATCGAGTAAACAAATTTTCCTAATCTTTCTGTTCAAGCGCCATCTAC”, the binding signal (RPM ratio (pull-down/input)) came out at 0.251.

For the sequence “GATGATTGTTCTCCCAGCTGATGAATTGGCTAAGTCGAGTAAACAAATTTTCCTAATCTTTCTGTTCAAGCGCCATCTAC”, the binding signal (RPM ratio (pull-down/input)) was determined as 0.226.

As to “GATGATTGTTCTCCCAGCTGATGAATTAAGTTAATCGAGTAAACAAATTTTCCTAATCTTTCTGTTCAAGCGCCATCTAC”, the binding signal (RPM ratio (pull-down/input)) came to 0.454.

As for “GATGATTGTTCTCCCAGCTGATGAATTAATGTGCTCGAGTAAACAAATTTTCCTAATCTTTCTGTTCAAGCGCCATCTAC”, the binding signal (RPM ratio (pull-down/input)) was determined as 1.13.

In the case of “GATGATTGTTCTCCCAGCTGATGAATTGTGTTCCTCGAGTAAACAAATTTTCCTAATCTTTCTGTTCAAGCGCCATCTAC”, the binding signal (RPM ratio (pull-down/input)) amounted to 2.61.

Turning to “GATGATTGTTCTCCCAGCTGATGAATTAAGTATTTCGAGTAAACAAATTTTCCTAATCTTTCTGTTCAAGCGCCATCTAC”, the binding signal (RPM ratio (pull-down/input)) was found to be 2.99.

“GATGATTGTTCTCCCAGCTGATGAATTCAGCTTATCGAGTAAACAAATTTTCCTAATCTTTCTGTTCAAGCGCCATCTAC”: the binding signal (RPM ratio (pull-down/input)) was found to be 1.68.

As for “GATGATTGTTCTCCCAGCTGATGAATTTTACGACTCGAGTAAACAAATTTTCCTAATCTTTCTGTTCAAGCGCCATCTAC”, the binding signal (RPM ratio (pull-down/input)) amounted to 0.307.

As to “GATGATTGTTCTCCCAGCTGATGAATTACATTGTTCGAGTAAACAAATTTTCCTAATCTTTCTGTTCAAGCGCCATCTAC”, the binding signal (RPM ratio (pull-down/input)) is 1.45.

Take “GATGATTGTTCTCCCAGCTGATGAATTCTCGCGGTCGAGTAAACAAATTTTCCTAATCTTTCTGTTCAAGCGCCATCTAC”: the binding signal (RPM ratio (pull-down/input)) turned out to be 0.272.

Take “GATGATTGTTCTCCCAGCTGATGAATTACGCCTTTCGAGTAAACAAATTTTCCTAATCTTTCTGTTCAAGCGCCATCTAC”: the binding signal (RPM ratio (pull-down/input)) was found to be 5.25.

Consider “GATGATTGTTCTCCCAGCTGATGAATTGCGTGCATCGAGTAAACAAATTTTCCTAATCTTTCTGTTCAAGCGCCATCTAC”, for which the binding signal (RPM ratio (pull-down/input)) was 2.82.

For “GATGATTGTTCTCCCAGCTGATGAATTTCGCAGGTCGAGTAAACAAATTTTCCTAATCTTTCTGTTCAAGCGCCATCTAC”, the binding signal (RPM ratio (pull-down/input)) was 0.853.

“GATGATTGTTCTCCCAGCTGATGAATTGCGATATTCGAGTAAACAAATTTTCCTAATCTTTCTGTTCAAGCGCCATCTAC”: the binding signal (RPM ratio (pull-down/input)) was determined as 1.7.

For the sequence “GATGATTGTTCTCCCAGCTGATGAATTACCCTTTTCGAGTAAACAAATTTTCCTAATCTTTCTGTTCAAGCGCCATCTAC”, the binding signal (RPM ratio (pull-down/input)) came out at 0.278.

As for “GATGATTGTTCTCCCAGCTGATGAATTGACTGAATCGAGTAAACAAATTTTCCTAATCTTTCTGTTCAAGCGCCATCTAC”, the binding signal (RPM ratio (pull-down/input)) was 0.24.

In the case of “GATGATTGTTCTCCCAGCTGATGAATTAAAGGACTCGAGTAAACAAATTTTCCTAATCTTTCTGTTCAAGCGCCATCTAC”, the binding signal (RPM ratio (pull-down/input)) turned out to be 0.262.

For “GATGATTGTTCTCCCAGCTGATGAATTCCCAACTTCGAGTAAACAAATTTTCCTAATCTTTCTGTTCAAGCGCCATCTAC”, the binding signal (RPM ratio (pull-down/input)) was 0.279.

Take “GATGATTGTTCTCCCAGCTGATGAATTTGTAAGTTCGAGTAAACAAATTTTCCTAATCTTTCTGTTCAAGCGCCATCTAC”: the binding signal (RPM ratio (pull-down/input)) came to 2.97.

“GATGATTGTTCTCCCAGCTGATGAATTAGATACCTCGAGTAAACAAATTTTCCTAATCTTTCTGTTCAAGCGCCATCTAC”: the binding signal (RPM ratio (pull-down/input)) came out at 0.583.

As to “GATGATTGTTCTCCCAGCTGATGAATTGTGACGATCGAGTAAACAAATTTTCCTAATCTTTCTGTTCAAGCGCCATCTAC”, the binding signal (RPM ratio (pull-down/input)) worked out at 0.494.

In the case of “GATGATTGTTCTCCCAGCTGATGAATTCTTCCCGTCGAGTAAACAAATTTTCCTAATCTTTCTGTTCAAGCGCCATCTAC”, the binding signal (RPM ratio (pull-down/input)) turned out to be 0.162.

On to “GATGATTGTTCTCCCAGCTGATGAATTGCAGGCATCGAGTAAACAAATTTTCCTAATCTTTCTGTTCAAGCGCCATCTAC”, for which the binding signal (RPM ratio (pull-down/input)) is 1.3.

As for “GATGATTGTTCTCCCAGCTGATGAATTGGCTATTTCGAGTAAACAAATTTTCCTAATCTTTCTGTTCAAGCGCCATCTAC”, the binding signal (RPM ratio (pull-down/input)) is 1.27.

With “GATGATTGTTCTCCCAGCTGATGAATTTTGAGCTTCGAGTAAACAAATTTTCCTAATCTTTCTGTTCAAGCGCCATCTAC”, the binding signal (RPM ratio (pull-down/input)) stood at 0.336.

On to “GATGATTGTTCTCCCAGCTGATGAATTCGACGCTTCGAGTAAACAAATTTTCCTAATCTTTCTGTTCAAGCGCCATCTAC”, for which the binding signal (RPM ratio (pull-down/input)) came out at 0.536.

Regarding “GATGATTGTTCTCCCAGCTGATGAATTAGCTAGCTCGAGTAAACAAATTTTCCTAATCTTTCTGTTCAAGCGCCATCTAC”, the binding signal (RPM ratio (pull-down/input)) worked out at 0.53.

As to “GATGATTGTTCTCCCAGCTGATGAATTACAATTGTCGAGTAAACAAATTTTCCTAATCTTTCTGTTCAAGCGCCATCTAC”, the binding signal (RPM ratio (pull-down/input)) came to 1.17.

As to “GATGATTGTTCTCCCAGCTGATGAATTGTAGTTTTCGAGTAAACAAATTTTCCTAATCTTTCTGTTCAAGCGCCATCTAC”, the binding signal (RPM ratio (pull-down/input)) was determined as 1.66.

As to “GATGATTGTTCTCCCAGCTGATGAATTACAAGTGTCGAGTAAACAAATTTTCCTAATCTTTCTGTTCAAGCGCCATCTAC”, the binding signal (RPM ratio (pull-down/input)) was 0.639.

On to “GATGATTGTTCTCCCAGCTGATGAATTGTAAGATTCGAGTAAACAAATTTTCCTAATCTTTCTGTTCAAGCGCCATCTAC”, for which the binding signal (RPM ratio (pull-down/input)) was 0.321.

In the case of “GATGATTGTTCTCCCAGCTGATGAATTGGAGTTATCGAGTAAACAAATTTTCCTAATCTTTCTGTTCAAGCGCCATCTAC”, the binding signal (RPM ratio (pull-down/input)) worked out at 0.699.

“GATGATTGTTCTCCCAGCTGATGAATTGTAATTTTCGAGTAAACAAATTTTCCTAATCTTTCTGTTCAAGCGCCATCTAC”: the binding signal (RPM ratio (pull-down/input)) stood at 0.962.

In the case of “GATGATTGTTCTCCCAGCTGATGAATTTACAAGGTCGAGTAAACAAATTTTCCTAATCTTTCTGTTCAAGCGCCATCTAC”, the binding signal (RPM ratio (pull-down/input)) is 0.347.

Regarding “GATGATTGTTCTCCCAGCTGATGAATTAGCACGGTCGAGTAAACAAATTTTCCTAATCTTTCTGTTCAAGCGCCATCTAC”, the binding signal (RPM ratio (pull-down/input)) turned out to be 0.294.

Take “GATGATTGTTCTCCCAGCTGATGAATTTTCCGTATCGAGTAAACAAATTTTCCTAATCTTTCTGTTCAAGCGCCATCTAC”: the binding signal (RPM ratio (pull-down/input)) stood at 0.355.
